From PMC10552892, “Ebselen oxide and derivatives are new allosteric HER2 inhibitors for HER2‐positive cancers” (Molecular Oncology, 2023)

Legend:
V842I HER2 = V842I HER2 (Homo sapiens, UniProt P04626, V842I); experiment: Activation of gD-tagged V842I HER2 in HBMECs, western blot; settings: 5–10 μM, 24 h, one range printed for V777L and V842I
[1] = system: HBMECs overexpressing V777L HER2; experiment: Proliferation of HBMECs overexpressing V777L HER2 (Incucyte, MTT)

O=C1c2ccccc2[Se](=O)N1c1ccccc1 (stereo not drawn) [Ebselen oxide, ebselen oxide]
Inhibition of V842I HER2 activation (V842I HER2): 34–49%
Inhibition of cell proliferation induced by overexpression of V777L HER2 ([1]; 5 μM, Incucyte 5 days): almost totally inhibited
Inhibition of proliferation compared with AG1478 (5 μM) ([1]; MTT 3 days, V777L): better
